The results in this text go back to paper PMC4336329 (PLoS ONE, 2015).

Molecules are shown by their SMILES. Screen size: about 310,000 compounds; about 2,200 (0.71%) showed an effect of 50% or more. The effect is printed as a negative number. The list shows a part of the results.

The target of this assay is human ether-à-go-go-related gene (hERG) potassium channel (human, UniProt Q12809). Description: primary screen, population patch clamp on CHO cells stably expressing hERG.
Chain of human ether-à-go-go-related gene (hERG) potassium channel (Q12809 whole entry, looked up): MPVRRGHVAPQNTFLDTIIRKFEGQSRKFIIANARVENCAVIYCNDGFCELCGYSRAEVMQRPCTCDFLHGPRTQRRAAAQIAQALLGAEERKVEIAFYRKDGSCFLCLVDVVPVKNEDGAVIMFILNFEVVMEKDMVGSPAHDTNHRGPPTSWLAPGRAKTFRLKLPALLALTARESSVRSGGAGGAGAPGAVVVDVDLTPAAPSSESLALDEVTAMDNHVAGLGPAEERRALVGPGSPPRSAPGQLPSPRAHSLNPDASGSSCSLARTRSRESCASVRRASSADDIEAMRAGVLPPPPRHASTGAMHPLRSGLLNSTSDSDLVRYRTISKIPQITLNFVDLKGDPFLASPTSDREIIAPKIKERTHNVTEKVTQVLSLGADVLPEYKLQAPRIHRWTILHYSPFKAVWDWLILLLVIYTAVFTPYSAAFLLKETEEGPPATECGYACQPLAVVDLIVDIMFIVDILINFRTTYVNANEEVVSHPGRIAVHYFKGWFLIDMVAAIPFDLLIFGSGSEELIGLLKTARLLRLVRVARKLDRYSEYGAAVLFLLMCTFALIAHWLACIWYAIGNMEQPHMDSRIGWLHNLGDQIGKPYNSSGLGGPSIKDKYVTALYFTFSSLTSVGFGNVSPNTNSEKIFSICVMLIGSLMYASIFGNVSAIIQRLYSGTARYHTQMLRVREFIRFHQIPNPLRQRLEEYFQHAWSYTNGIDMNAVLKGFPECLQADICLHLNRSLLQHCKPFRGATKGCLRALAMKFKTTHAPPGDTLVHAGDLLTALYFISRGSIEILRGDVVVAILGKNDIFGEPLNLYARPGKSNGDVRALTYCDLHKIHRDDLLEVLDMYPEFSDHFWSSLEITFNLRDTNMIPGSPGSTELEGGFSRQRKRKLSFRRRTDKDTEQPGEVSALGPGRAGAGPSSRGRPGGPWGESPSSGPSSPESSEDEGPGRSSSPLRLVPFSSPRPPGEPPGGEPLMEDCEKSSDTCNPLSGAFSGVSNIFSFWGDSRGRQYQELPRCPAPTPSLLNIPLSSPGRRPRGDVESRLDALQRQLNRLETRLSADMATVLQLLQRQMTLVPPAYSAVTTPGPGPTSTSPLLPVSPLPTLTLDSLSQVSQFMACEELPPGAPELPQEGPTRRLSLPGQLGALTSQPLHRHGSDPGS
In the case of `CC(=O)c1cccc(CN2CCC(n3nccc3NC(=O)CCOc3ccccc3)CC2)c1`, the “hERG current change (%, negative = inhibition) at 1uM” value is recorded as 23.6%.
Consider `Cl.O=C(OCCN1CCOCC1)c1ccc(Cl)cc1Cl`, for which the “hERG current change (%, negative = inhibition) at 1uM” value was 7.15%.
With `COc1ccc(NC(=O)C2=C(C)Nc3ncnn3C2c2ccccc2C(F)(F)F)c(OC)c1` (centres unmarked) the figure was 10.2%.
Turning to `Clc1ccc(-n2ncc3c(NCc4cccnc4)ncnc32)cc1Cl`, the “hERG current change (%, negative = inhibition) at 1uM” value stood at 13.8%.
With `COc1cccc(C2C3=C(CCCC3=O)NC3=C2C(=O)c2ccccc23)c1` (centres unmarked) the figure was 8.22%.
To `O=C(NCCS(=O)(=O)N1CCN(c2ccccc2F)CC1)c1ccco1` belongs 0.315%; to `Cn1nnnc1SCC(=O)c1c(N)n(C)c(=O)n(C)c1=O`, 15.1%; to `CCC(C)[C@H](NC(=O)NCc1ccc(Cl)cc1)C(=O)O` (some centres unmarked), -3.21%.
In the case of `CCOC(=O)c1[nH]c2ccc(F)cc2c1NC(=O)CN1CCc2cc(OC)c(OC)cc2C1`, the “hERG current change (%, negative = inhibition) at 1uM” value amounted to 11.2%.
As for `C=CCSc1nc2ccccc2n1Cc1nnc(-c2cccs2)o1`, the “hERG current change (%, negative = inhibition) at 1uM” value was -17.8%.
With `O=C(c1cccc(Cl)c1)N1CCCC(C(=O)N2CCN(c3ccccc3)CC2)C1` (centres unmarked) the figure was -13.1%; with `O=C(CCN1C(=O)/C(=C\c2ccccc2Cl)SC1=S)Nc1cccnc1`, 10.8%.
On to `O=C(NCc1ccccc1)C(c1ccncc1)N(C(=O)c1csnn1)C1CC1` (centres unmarked), for which the “hERG current change (%, negative = inhibition) at 1uM” value is 11.6%.
As to `CN(CC(=O)Nc1ccc(F)c(F)c1F)C(=O)C1CCN(C(=O)Nc2ccccc2)CC1`, the “hERG current change (%, negative = inhibition) at 1uM” value is listed as -0.567%.
With `COc1cc(OC)c2ccc(=O)oc2c1C(CCN1CCCC(C)C1)c1ccc(N(C)C)cc1` (centres unmarked) the figure was 6.25%.
In the case of `O=C(Oc1ccc(-c2nnco2)cc1)c1ccc(Br)o1`, the “hERG current change (%, negative = inhibition) at 1uM” value amounted to 9.14%.
Turning to `O=S(=O)(Nc1cc(C(F)(F)F)ccc1N1CCOCC1)c1ccccc1`, the “hERG current change (%, negative = inhibition) at 1uM” value stood at 9.03%.
With `Cc1cccc(CN2C(=O)c3ccccc3Sc3ccc(C(=O)O)cc32)c1` the figure was 13.7%; with `COc1ccc(C)cc1NC(=O)c1nn(C)cc1Br`, 12.3%.
Turning to `Nc1ncc(Br)cc1S(=O)(=O)NCCC(=O)NCc1ccc(F)cc1`, the “hERG current change (%, negative = inhibition) at 1uM” value was found to be 1.42%.
Turning to `CCOc1ccc(NC(=O)Cn2nnc(C(=O)NCc3ccc(OC)cc3)c2N)cc1`, the “hERG current change (%, negative = inhibition) at 1uM” value was -0.828%.
With `C/C(=N\n1c(C)nc2ccccc2c1=O)c1ccc(N)cc1` the figure was 17.5%; with `COC(=O)NC1(C(F)(F)F)NC(=O)N(C2CCCCC2)C1=O` (centres unmarked), 5.15%; with `S=C(Nc1ccc(Oc2ccccc2)cc1)N(CCCN1CCOCC1)Cc1ccccn1`, -0.69%.
Take `C=CCn1c(COc2ccc(OC)cc2)nnc1SC(C)C(=O)NC1CC1` (centres unmarked): the “hERG current change (%, negative = inhibition) at 1uM” value is 3.53%.
For the compound `O=c1c(N2CCOCC2)nsnc1N1CCOCC1`, the “hERG current change (%, negative = inhibition) at 1uM” value was determined as 2.95%.
To `CCOc1cc(/C=N/N=C/c2ccc(O)c(OCC)c2)ccc1O` belongs 8.76%; to `CC(C)(C)C1=C(C#N)C(c2cccnc2)C(C#N)=C(N)O1` (centres unmarked), 11.3%.
Consider `CC(C)(C)OC(=O)CNC(=O)c1[nH]cnc1C(=O)N[C@@H](Cc1ccccc1)C(=O)OC(C)(C)C`, for which the “hERG current change (%, negative = inhibition) at 1uM” value stood at 8.05%.
As to `O=C(NCCS(=O)(=O)N1CCc2ccccc2C1)c1ccccc1`, the “hERG current change (%, negative = inhibition) at 1uM” value is -5.31%.
To `COc1cc2[nH]c(=O)n(CCCCCC(=O)N3CCN(c4ccccc4)CC3)c(=O)c2cc1OC` belongs 7.57%; to `O=C(O)c1cccc(S(=O)(=O)Nc2ccc(OCc3ccccc3)cc2)c1`, 19.7%.
With `CN(C)CC(C)(C)CNC(=S)NCc1ccc2c(c1)OCO2`, the “hERG current change (%, negative = inhibition) at 1uM” value amounted to 7.13%.
Regarding `O=C(CSc1nnc(NC(=O)Cc2ccccc2)s1)NCc1ccco1`, the “hERG current change (%, negative = inhibition) at 1uM” value was 9.5%.
In the case of `CC1Oc2ccccc2OC1C(=O)Nc1ccccn1` (centres unmarked), the “hERG current change (%, negative = inhibition) at 1uM” value is recorded as 11%.
With `CNC(=O)CCCc1nc(-c2ccccc2Cl)no1`, the “hERG current change (%, negative = inhibition) at 1uM” value is recorded as 12.8%.
Regarding `CCc1ccc(NC(=O)c2cnn(-c3ccccc3)c2C)cc1`, the “hERG current change (%, negative = inhibition) at 1uM” value stood at 4.6%.
With `COc1ccc(CCNc2cc(C)nc3c(-c4ccc(Cl)cc4)c(C)nn23)cc1OC` the figure was 6.5%.
With `CCSC1=C(C#N)C(c2ccccc2Cl)C(C(=O)c2cccs2)C(O)(C(F)(F)F)N1` (centres unmarked) the figure was 12.1%.
With `COc1cccc(C(=O)Oc2c(CN3CCOCC3)cc(Cl)c3cccnc23)c1` the figure was -2.81%; with `O=C(NCCN1CCOCC1)c1cc(-c2ccc(Cl)cc2)on1`, -9.57%.
Turning to `Cc1sc2ncnc(SCC(=O)NC(=O)NCc3ccco3)c2c1C`, the “hERG current change (%, negative = inhibition) at 1uM” value is 5.25%.
As for `Cc1ccc(C(=O)/C=C2\NCCNC2=O)cc1`, the “hERG current change (%, negative = inhibition) at 1uM” value is listed as 15.2%.
`CC(=O)c1cccc(NC(=S)N2CCc3ccccc32)c1`: the “hERG current change (%, negative = inhibition) at 1uM” value is recorded as 9.99%.
